Test results published in the supplement of paper PMC7826260.
This is one part of the list. One pool of 16,384 single-stranded DNAs met each Rep nickase domain in vitro (3 µM enzyme, 1 h, 37 °C); shown is the middle of each 90-letter strand. The score is log2 (uncut reads / reads without enzyme); uncut sequences lie near 0, cut ones below; no hit call is given. Counts are relative to all reads; uncut strands gain when others are lost, and binding without cutting may add a little.

What was measured:
Experiment in all cases: uncleaved DNA left, log2 of reads against the no-enzyme library (log2 ratio); higher = less cleavage (more negative = more Rep cleavage of the k-mer); sequences stand for … in CTCGTCCG…ACCGGAGA
[1] = tested on: T1, Rep nickase domain of Muscovy duck circovirus
T1 sequence (protein, residues 1-111, tag omitted): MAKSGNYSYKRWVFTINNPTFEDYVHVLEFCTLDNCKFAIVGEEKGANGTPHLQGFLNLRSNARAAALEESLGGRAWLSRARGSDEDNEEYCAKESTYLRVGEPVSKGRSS
Procedure: (§1)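 A pool of 90-nt single-stranded DNAs with seven random bases just before the constant AC of the nick site (name = the seven bases) was cut by 3 µM recombinant His6-SUMO-tagged Rep nickase domain (300 nM DNA, 50 mM HEPES pH 8.0, 50 mM NaCl, 1 mM MnCl2, 1 h, 37 °C, three replicates). Uncut DNA was amplified and sequenced.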

[2] = tested on: T2, Rep nickase domain of banana bunchy top virus
T2 sequence (protein, residues 1-94, tag omitted): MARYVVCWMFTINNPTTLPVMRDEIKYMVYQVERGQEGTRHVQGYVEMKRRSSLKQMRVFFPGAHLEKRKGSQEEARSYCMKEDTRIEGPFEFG
Procedure: as §1

[3] = tested on: T3, Rep nickase domain of cabbage leaf curl virus
T3 sequence (protein, residues 1-116, tag omitted): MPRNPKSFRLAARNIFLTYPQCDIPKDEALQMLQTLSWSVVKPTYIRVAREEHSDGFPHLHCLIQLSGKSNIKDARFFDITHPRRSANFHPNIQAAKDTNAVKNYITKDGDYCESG
Procedure: as §1

[4] = tested on: T4, Rep nickase domain of chickpea chlorotic dwarf virus
T4 sequence (protein, residues 1-124, tag omitted): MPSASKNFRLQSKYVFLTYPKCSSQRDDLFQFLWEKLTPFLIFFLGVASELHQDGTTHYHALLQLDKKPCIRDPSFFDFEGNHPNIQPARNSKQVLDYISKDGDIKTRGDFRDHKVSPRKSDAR
Procedure: as §1

[5] = tested on: T5, Rep nickase domain of faba bean necrotic yellows virus
T5 sequence (protein, residues 1-98, tag omitted): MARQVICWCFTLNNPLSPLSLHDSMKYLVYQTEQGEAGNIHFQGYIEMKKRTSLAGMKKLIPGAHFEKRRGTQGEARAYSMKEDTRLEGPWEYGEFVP
Procedure: as §1

[6] = tested on: T6, Rep nickase domain of maize striate mosaic virus
T6 sequence (protein, residues 1-117, tag omitted): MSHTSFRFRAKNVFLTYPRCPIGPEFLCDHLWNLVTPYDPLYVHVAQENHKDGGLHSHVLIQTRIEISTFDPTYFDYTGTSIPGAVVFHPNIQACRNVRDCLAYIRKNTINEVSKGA
Procedure: as §1

[7] = tested on: T7, Rep nickase domain of porcine circovirus 2
T7 sequence (protein, residues 2-116, tag omitted): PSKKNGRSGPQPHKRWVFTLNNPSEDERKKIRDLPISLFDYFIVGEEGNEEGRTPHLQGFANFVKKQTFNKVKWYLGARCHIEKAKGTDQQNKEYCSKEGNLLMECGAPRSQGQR
Procedure: as §1

[8] = tested on: T8, Rep nickase domain of tomato golden mosaic virus
T8 sequence (protein, residues 1-124, tag omitted): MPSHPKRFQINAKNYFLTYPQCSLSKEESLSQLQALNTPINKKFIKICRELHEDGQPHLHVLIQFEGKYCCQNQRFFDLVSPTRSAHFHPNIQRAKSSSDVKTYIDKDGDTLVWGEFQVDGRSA
Procedure: as §1

[9] = tested on: T9, Rep nickase domain of tomato yellow leaf curl virus
T9 sequence (protein, residues 1-136, tag omitted): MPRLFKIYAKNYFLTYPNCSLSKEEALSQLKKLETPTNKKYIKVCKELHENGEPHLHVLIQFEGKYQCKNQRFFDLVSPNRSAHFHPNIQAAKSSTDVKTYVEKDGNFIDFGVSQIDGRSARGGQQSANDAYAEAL
Procedure: as §1

[10] = tested on: T10, Rep nickase domain of wheat dwarf virus
T10 sequence (protein, residues 1-137, tag omitted): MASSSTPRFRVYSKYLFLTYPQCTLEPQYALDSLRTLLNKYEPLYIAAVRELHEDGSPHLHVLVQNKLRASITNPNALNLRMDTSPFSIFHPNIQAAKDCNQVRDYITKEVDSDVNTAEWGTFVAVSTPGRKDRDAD
Procedure: as §1

| Sequence | uncleaved DNA left (log2) [1] | uncleaved DNA left (log2) [2] | uncleaved DNA left (log2) [3] | uncleaved DNA left (log2) [4] | uncleaved DNA left (log2) [5] | uncleaved DNA left (log2) [6] | uncleaved DNA left (log2) [7] | uncleaved DNA left (log2) [8] | uncleaved DNA left (log2) [9] | uncleaved DNA left (log2) [10] |
| --- | --- | --- | --- | --- | --- | --- | --- | --- | --- | --- |
| CATCCAA | -0.0299 | -0.123 | -0.0508 | -0.466 | -0.0935 | -0.806 | -0.0158 | -0.179 | -0.0906 | -0.015 |
| CAAAGAT | 0.0696 | 0.0159 | -0.207 | -0.801 | 0.12 | 0.947 | 0.149 | 0.0619 | 0.0313 | 0.0182 |
| CGCAGTA | -0.021 | 0.00617 | 0.0985 | -0.411 | 0.0937 | -0.228 | 0.121 | 0.0882 | 0.00839 | 0.0939 |
| CCGGGAC | -0.0626 | 0.097 | 0.817 | 1.46 | -0.0368 | 2.2 | 0.0848 | -0.00054 | 0.0943 | -0.00895 |
| GACTCAA | 0.016 | 0.123 | 0.223 | 0.588 | 0.143 | 0.737 | -0.361 | 0.091 | 0.0465 | 0.0738 |
| TGTCTAT | -0.0373 | -0.042 | 0.187 | 0.0704 | 0.0824 | 0.52 | -0.0782 | -0.121 | -0.0155 | 0.122 |
| TGAGGTC | -0.0115 | -0.0282 | 0.432 | 1.95 | 0.0514 | 1.36 | -0.0849 | 0.079 | -0.0198 | -0.00986 |
| TGGGGCA | 0.0572 | 0.00996 | 0.845 | 1.85 | 0.0374 | 2.21 | 0.168 | -0.0289 | -0.0294 | 0.0837 |
| CCATATA | -0.0813 | 0.00719 | -0.187 | -1.63 | 0.0205 | -0.94 | -0.0572 | 0.094 | -0.112 | -0.0883 |
| TCCCTTT | 0.0169 | -0.0172 | -0.0191 | -2.05 | 0.0354 | -0.542 | -0.408 | 0.0464 | 0.0322 | -0.201 |
| AACAATG | -0.114 | -0.00563 | -0.38 | -0.383 | -0.0405 | -0.857 | 0.106 | 0.141 | -0.0152 | -0.0213 |
| GTTCGTA | -0.0169 | 0.1 | 0.314 | 0.801 | 0.032 | 1.66 | 0.0506 | 0.0116 | 0.0224 | 0.0808 |
| TTGTATG | -0.0528 | -0.189 | -0.635 | -0.74 | -0.0609 | -1.13 | 0.0307 | -0.0199 | -0.0754 | -0.145 |
| TCCAGCC | 0.00107 | 0.0392 | -0.0979 | -0.392 | 0.0582 | -0.838 | 0.0103 | -0.0506 | -0.0676 | -0.0253 |
| TAGGTCG | 0.0397 | 0.109 | -0.709 | -0.606 | 0.0585 | -0.946 | 0.111 | 0.0584 | 0.165 | 0.0485 |
| CAATCCG | -0.0551 | -0.0747 | -0.875 | -0.0238 | -0.0712 | -0.8 | 0.127 | -0.0576 | -0.118 | -0.0329 |
| GGATTTT | -0.547 | 0.00909 | 0.488 | 0.99 | -0.0429 | 1.89 | -1.54 | -0.0191 | 0.0142 | 0.0695 |
| AAAGCTG | 0.0579 | 0.0871 | 0.436 | 1.77 | 0.106 | 1.77 | 0.254 | 0.093 | -0.0191 | 0.169 |
| CAAGACG | -0.0313 | 0.00391 | -0.804 | -0.55 | -0.0538 | -1.2 | 0.0917 | 0.0367 | 0.0261 | -0.184 |
| CACGAAG | 0.127 | -0.0669 | -0.774 | -0.299 | 0.108 | -1.1 | 0.0845 | 0.0571 | 0.0332 | -0.0549 |
| ACGTACC | -0.0709 | 0.0393 | -0.125 | -0.233 | -0.0515 | -0.438 | -0.219 | -0.0426 | -0.123 | 0.00295 |
| ACCATCG | -0.0499 | 0.00635 | 0.0484 | 1.43 | -0.0203 | 1.04 | 0.0584 | -0.089 | 0.17 | -0.0405 |
| CATAATC | 0.0572 | 0.0897 | -0.00383 | -0.101 | -0.0292 | -0.757 | 0.0822 | 0.0266 | 0.183 | 0.178 |
| GTGGGGC | 0.0684 | 0.0365 | 0.592 | 1.34 | 0.0387 | 1.93 | 0.168 | 0.0783 | 0.0192 | 0.13 |
| TTAGAAG | 0.0685 | -0.0292 | -0.747 | -0.797 | 0.0426 | -1.23 | 0.0525 | 0.155 | 0.0321 | -0.0849 |
| TTGTGCA | -0.145 | -0.159 | -0.459 | -0.837 | -0.0226 | -1.13 | -0.229 | -0.0953 | -0.00442 | -0.155 |
| ACAATGC | 0.0202 | 0.133 | -0.57 | -0.237 | 0.0759 | -1.1 | 0.179 | 0.0255 | 0.101 | -0.0819 |
| CTTGACG | -0.0279 | -0.0231 | -0.783 | -0.508 | -0.027 | -0.943 | 0.172 | -0.153 | 0.105 | -0.145 |
| GCGGACG | 0.131 | 0.135 | 0.634 | 1.57 | 0.204 | 1.49 | 0.318 | 0.134 | 0.13 | 0.17 |
| GTTATCG | 0.0526 | -0.0689 | -0.447 | -0.511 | -0.00416 | -0.722 | 0.164 | -0.0401 | -0.0559 | -0.0887 |
